# Assay results taken from the supplement of paper PMC3334620.
# In all, about 33,000 sequences were measured (“E-score (-0.5 to 0.5)”: median about -0.043, highest 2% from about 0.37 on). The list shows a part of the results.
# Target: T1, Upc2 (UniProt Q12151)
# T1 sequence: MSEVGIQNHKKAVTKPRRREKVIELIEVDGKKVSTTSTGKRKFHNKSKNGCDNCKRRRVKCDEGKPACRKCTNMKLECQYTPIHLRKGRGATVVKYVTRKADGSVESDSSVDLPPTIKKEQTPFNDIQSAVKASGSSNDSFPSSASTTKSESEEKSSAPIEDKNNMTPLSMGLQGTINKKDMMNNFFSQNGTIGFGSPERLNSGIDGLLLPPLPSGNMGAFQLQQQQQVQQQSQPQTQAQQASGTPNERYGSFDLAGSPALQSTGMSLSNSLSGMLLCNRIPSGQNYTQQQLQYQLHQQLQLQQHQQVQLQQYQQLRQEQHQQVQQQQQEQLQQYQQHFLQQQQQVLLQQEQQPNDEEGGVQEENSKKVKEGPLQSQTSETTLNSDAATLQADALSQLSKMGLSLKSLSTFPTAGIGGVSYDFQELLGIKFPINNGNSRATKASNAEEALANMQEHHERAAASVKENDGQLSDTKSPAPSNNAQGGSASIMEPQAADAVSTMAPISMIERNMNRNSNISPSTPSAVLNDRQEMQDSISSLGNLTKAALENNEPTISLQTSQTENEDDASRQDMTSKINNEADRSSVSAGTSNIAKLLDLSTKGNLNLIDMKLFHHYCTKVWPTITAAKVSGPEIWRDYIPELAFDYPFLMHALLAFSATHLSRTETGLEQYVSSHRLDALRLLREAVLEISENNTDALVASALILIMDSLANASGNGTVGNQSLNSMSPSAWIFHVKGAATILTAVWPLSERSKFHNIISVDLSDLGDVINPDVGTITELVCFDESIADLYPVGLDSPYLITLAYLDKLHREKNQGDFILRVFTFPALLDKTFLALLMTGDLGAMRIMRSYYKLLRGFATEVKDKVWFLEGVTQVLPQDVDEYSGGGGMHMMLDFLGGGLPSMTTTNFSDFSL
# Assay: PBM E-score (8-mer binding enrichment) (E-score (-0.5 to 0.5)); higher = stronger / more preferred TF binding; most listed sequences are background and not binding sites
# Conditions: protein concentration: 200 nM; construct: GST-full length
# Method in brief: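 Masliner-normalised scans of fluorescent anti-GST signal were the basis for scoring. That signal came from GST-tagged yeast transcription factors applied at about 100-200 nM to double-stranded universal all-10-mer Agilent arrays on fresh or once-stripped slides. Each ungapped eight-base word, pooled with its reverse complement, received an E-score from the Universal PBM Analysis Suite.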
row,Sequence,PBM E-score
1,AATGAGCG,0.0444
2,CGATATCC,0.137
3,ATAGCTTG,-0.0163
4,ACGCTGAT,0.0974
5,AACCGGCT,-0.239
6,GTAAAATA,0.167
7,CAGTGTCC,-0.141
8,CCACCTTA,-0.122
9,GTCAGGAA,-0.0731
10,CGGCGGTC,-0.0804
11,CCTCACTC,-0.019
12,AGGCTAAC,0.00166
13,GTGTTGTA,0.128
14,CAACACCC,-0.159
15,CTCGCCCC,-0.0354
16,TAGTAAGA,-0.0981
17,ATAATAAG,0.0827
18,CGCGGGAA,0.0521
19,GTGAGTTA,-0.184
20,AGTGATGA,-0.158
21,CTCGCAAG,0.124
22,AGTATTAA,0.00356

row,Sequence,PBM E-score
1,CAACTGAA,-0.00109
2,ATGGGGCA,-0.196
3,GGAGATCA,-0.136
4,ACCCAGGC,-0.118
5,CCGCCGAA,-0.137
6,AACAAGTC,-0.109
7,AAGACATA,-0.0365
8,CTCGGGGA,-0.177
9,CTCCAGAA,-0.0763
10,ACATCTAT,0.119
11,GGACATAA,-0.0984
12,AGCACCCC,-0.205
13,CGAGTTGA,0.117
14,GCACGGAA,-0.15
15,GCGCATCA,-0.183
16,AAAAGGGC,-0.27
17,AGGTAGAA,-0.0771
18,CAGCTTAC,0.114
19,ATCGTACC,0.455
20,AAGTCCAA,-0.163
21,CACGCAAA,-0.0775
22,AATTTCCA,-0.107

row,Sequence,PBM E-score
1,GGTAGGCA,-0.25
2,AAAGGTGC,-0.153
3,GGGACTAA,-0.183
4,AGCTGCTC,-0.149
5,AACGACCA,0.405
6,GGGGGCTA,-0.227
7,AGAACTGG,-0.144
8,GGAGGACA,-0.0797
9,ATGCTTCA,-0.133
10,AATGGCAT,0.145
11,AATACTGA,0.0641
12,AAGCGACC,0.252
13,TACAGGGA,-0.0298
14,CGTCGGAC,0.0134
15,TAAGACCA,-0.148
16,ACATACGG,0.354
17,CTCCACCA,-0.177
18,GGTCTAAA,-0.0209
19,ACTTTCTA,-0.195
20,GAAACAAC,0.00532
21,CGAGCTGC,0.144
22,GGACCAGA,-0.17

row,Sequence,PBM E-score
1,CCGCTGGC,-0.258
2,GAAACACC,0.0158
3,CATAAGGG,-0.156
4,GCCCACTA,-0.139
5,AGCCTATA,-0.018
6,AGTCCCCG,-0.0847
7,AATTGATC,0.0229
8,AGTGAGAT,-0.149
9,CCCTTGCG,-0.179
10,ATGCGTAA,0.231
11,TATACCCA,-0.0138
12,CGCAAGTC,-0.155
13,AGTGTATC,0.12
14,AGGGTCGG,0.0904
15,AGAGCACT,0.00095
16,CGGGTATA,0.195
17,TAGTGAAA,-0.285
18,CGTACTAG,0.334
19,GGACCTTA,0.00047
20,CCCTAGGC,-0.3
